# Key:
# hPD-L1 binding to hPD-1 = molecular target: T1, hPD-L1 binding to hPD-1 (Homo sapiens, UniProt Q9NZQ7); test: AlphaLISA blocking assay (Example 3); conditions: His6-tagged Z variants 250 nM to 12 pM; 10 nM biotinylated hPD-L1; read-out: IC50 (M), inhibiting binding of PD-L1 to PD-1
# T1 construct: 1086-PD-050 (hPD-1)
# Experimental: AlphaLISA blocking assay: The potential of Z variants to inhibit binding of PD-L1 to PD-1 was analyzed by AlphaLISA and recordings in an EnSpire multiplate reader 2300 (Perkin Elmer). hPD-1 (human PD-1 Fc-chimera; R&D Systems, cat. no. 1086-PD-050) was immobilized on AlphaLISA Acceptor beads (Perkin Elmer, cat. no. 6772002) according to the manufacturer's recommendations. Stepwise serial dilutions 1:3 of Hiss-tagged Z variants to final concentrations of 250 nM to 12 pM were made in a 384 plate (Perkin Elmer, cat. no. 6005350) and incubated for 1 h with 10 nM biotinylated hPD-L1 in AlphaLISA buffer (Perkin Elmer, cat. no. AL000F). hPD-1-coated Acceptor beads were added to a final concentration of 10 μg/ml and incubated for 1 h. Finally, streptavidin coated Donor beads (Perkin Elmer, cat. no. 6772002) were added to a final concentration of 40 μg/ml and incubated for 30 min. All incubations were performed at RT in the dark. The plate was analyzed in the EnSpire instrument and the IC50 values were calculated using GraphPad Prism 5.
# hPD-L1 [1] = molecular target: T2, hPD-L1 (Homo sapiens, UniProt Q9NZQ7); test: Biacore kinetic analysis of primary Z variants, hPD-L1; assay type: binding; conditions: His6-tagged Z variants over immobilized hPD-L1; 1:1 model
# T2 sequence (Q9NZQ7 19-290): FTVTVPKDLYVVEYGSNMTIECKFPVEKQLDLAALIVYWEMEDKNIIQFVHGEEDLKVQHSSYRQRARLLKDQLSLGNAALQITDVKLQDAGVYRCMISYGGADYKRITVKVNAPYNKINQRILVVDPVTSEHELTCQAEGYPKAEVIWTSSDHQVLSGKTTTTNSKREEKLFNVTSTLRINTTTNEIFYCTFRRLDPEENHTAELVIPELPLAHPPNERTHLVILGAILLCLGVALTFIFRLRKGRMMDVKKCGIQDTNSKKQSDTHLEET
# Experimental: (§1) Biacore kinetic and specificity analysis: Kinetic constants (ka and kd) and affinities (KD) for hPD-L1 were determined for 14 Hiss-tagged Z variants using a Biacore 2000 instrument (GE Healthcare). Some of the Z variants were also tested for binding against the sequence-related proteins hPD-L2, hB7-H3, hB7-H4 and mPD-L1 (mouse PD-L1 Fc Chimera, R&D Systems, cat. no. 1019-B7).
# hPD-L1, hPD-L2, hB7-H3, hB7-H4 and mPD-L1 were immobilized in separate flow cells on the carboxylated dextran layer of different CM5 chip surfaces (GE Healthcare, cat. no. BR100012). The immobilization was performed using amine coupling chemistry according to the manufacturer's protocol and using HBS-EP as running buffer (0.01 M HEPES pH 7.4, 0.15 M NaCl, 3 mM EDTA, 0.005% v/v Surfactant P20, GE Healthcare, cat. no. BR100188). […] One flow cell surface on each chip was activated and deactivated for use as blank during analyte injections. In the kinetic experiment, HBS-EP was used as running buffer and the flow rate was 50 μl/min. The analytes, i.e. the Z variants, were each diluted in HBS-EP buffer within a concentration range of 1000 to 0.01 nM and injected for 5 min, followed by dissociation in running buffer for 15-25 min. After dissociation, the surfaces were regenerated with one or two injections of 0.1% SDS. Kinetic constants were calculated from the sensorgrams using the Langmuir 1:1 model of BiaEvaluation software 4.1 (GE Healthcare).
# [2] = test system: PD-L1 expressing THP-1 cells (IFNγ stimulated); test: Cell binding analysis by FACS, THP-1 cells; assay type: cell-based; conditions: IFNγ stimulated THP-1 cells; 10 μg/ml His6-tagged Z variant (antibody 1 μg/ml); normalized against Z13091
# Experimental: Cell binding analysis by FACS: The potential of Z variants to bind PD-L1 expressing cells was investigated using Fluorescence Activated Cell Sorting (FACS). THP-1 cells, cultivated in RPMI (Lonza, cat. no. BE12-702F) containing 10% FBS were stimulated with 10 ng/ml IFNg (R&D Systems, cat. no. 285-IF-100) overnight which results in up-regulation of PD-L1. 150,000 stimulated and unstimulated cells were pipetted per well of a v-bottomed 96 well plate (Nunc, cat. no. 277143) and the cells in the plate were subsequently pelleted at 400 g for 3 min at RT. The supernatants were removed and the cells were resuspended in 100 μl PBS plus 2.5% FBS (staining buffer) containing 10 μg/ml of the different His-tagged Z variants. […] Cells incubated with buffer alone were used as negative controls. The cells were incubated for 1 h at 8° C. in the dark, washed twice with 100 μl staining buffer and resuspended in 100 μl of staining buffer containing a goat anti-Z antibody (produced in house) at a concentration of 5 μg/ml. Cells stained with the positive control were treated with buffer only. The cells were incubated for 1 h at 8° C. in the dark, washed twice with 100 μl staining buffer and resuspended in 100 μl of staining buffer containing an Alexa Fluor 647 chicken anti-goat IgG antibody (Life technologies, cat. no. A21469) or an Alexa Fluor 647 goat anti-mouse IgG antibody (Life technologies cat. no. A21236). The cells were once again incubated for 1 h at 8° C. in the dark, washed twice with 100 μl staining buffer and resuspended in 200 μl of staining buffer. Data from 10,000 cells were obtained using a FACS Calibur ([…]) and the data was analyzed using Flowing software 2.5.0 (Turku University). Mean fluorescence intensity (MFI) was used as a read out of binding capacity.
# hPD-L1 [3] = molecular target: T2, hPD-L1; test: ELISA EC50 analysis (target titration) of primary Z variants; assay type: binding; conditions: periplasmic Z-ABD fusions captured on anti-ABD antibody; biotinylated hPD-L1 40 nM diluted 1:4 to 32 pM
# Experimental: ELISA screening of Z variants: The binding of Z variants to hPD-L1 was analyzed in ELISA assays. Half-area 96-well ELISA plates (Costar, cat. no. 3690) were coated at 4° C. overnight with 2 μg/ml of an anti-ABD goat antibody (produced in-house) diluted in coating buffer (50 mM sodium carbonate, pH 9.6; Sigma, cat. no. C3041). The antibody solution was poured off and the wells were washed in water and blocked with 100 μl of PBSC (PBS supplemented with 0.5% casein; Sigma, cat. no. C8654) for 1 to 3 h at RT. The blocking solution was discarded and 50 μl periplasmic solutions, diluted 1:1 with PBST 0.05%, were added to the wells and incubated for 1.5 to 2.5 h at RT under slow agitation. As a blank control, PBST 0.05% was added instead of a periplasmic sample. The supernatants were poured off and the wells were washed 4 times with PBST 0.05%. Then, 50 μl of biotinylated hPD-L1 at a concentration of 0.32 nM in PBSC was added to each well. The plates were incubated for 1 h at RT followed by washes as described above. Streptavidin conjugated HRP (Thermo Scientific, cat. no. N100) diluted 1:30,000 in PBSC, was added to the wells and the plates were incubated for approximately 1 h. After washing as described above, 50 μl ImmunoPure TMB substrate (Thermo Scientific, cat. no. 34021) was added to the wells and the plates were treated according to the manufacturer's recommendations.
# EC50 analysis of Z variants: A selection of PD-L1 binding Z variants was subjected to an analysis of the response against a dilution series of biotinylated hPD-L1 following the procedure described above. The Z variants were diluted 1:1 in PBST 0.05%. Biotinylated hPD-L1 was added at a concentration of 40 nM and diluted stepwise 1:4 down to 32 pM. As a background control, all Z variants were also assayed with no target protein added. Periplasm samples containing the PD-L1 binding Z variant Z13112 (SEQ ID.NO:777) were included on each plate and analyzed as positive control. […] Data were analyzed using GraphPad Prism 5 and non-linear regression, and EC50 values (the half maximal effective concentration) were calculated.
# hB7-H4 = molecular target: T3, hB7-H4 (Homo sapiens, UniProt Q7Z7D3); test: Biacore specificity analysis of primary Z variants, hB7-H4; assay type: binding
# T3 construct: purchased R&D Systems 6576-B7-50
# T3 sequence (Q7Z7D3 25-282): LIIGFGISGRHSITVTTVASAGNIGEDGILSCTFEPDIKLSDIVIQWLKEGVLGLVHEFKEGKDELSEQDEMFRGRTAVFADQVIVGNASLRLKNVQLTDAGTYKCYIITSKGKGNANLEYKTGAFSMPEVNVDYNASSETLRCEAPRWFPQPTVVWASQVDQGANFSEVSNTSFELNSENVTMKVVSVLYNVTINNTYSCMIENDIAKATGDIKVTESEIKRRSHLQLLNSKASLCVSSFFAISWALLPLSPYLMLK
# Experimental: as §1
# hPD-L1, hPD-L2, hB7-H3, hB7-H4 and mPD-L1 were immobilized in separate flow cells on the carboxylated dextran layer of different CM5 chip surfaces (GE Healthcare, cat. no. BR100012). The immobilization was performed using amine coupling chemistry according to the manufacturer's protocol and using HBS-EP as running buffer (0.01 M HEPES pH 7.4, 0.15 M NaCl, 3 mM EDTA, 0.005% v/v Surfactant P20, GE Healthcare, cat. no. BR100188). The ligand immobilization levels on the surfaces were 468-894 RU for hPD-L1, 537-742 RU for hPD-L2, 383 RU for hB7-H3, 538-659 RU for hB7-H4 and 482 RU for mPD-L1. One flow cell surface on each chip was activated and deactivated for use as blank during analyte injections. In the kinetic experiment, HBS-EP was used as running buffer and the flow rate was 50 μl/min. The analytes, i.e. the Z variants, were each diluted in HBS-EP buffer within a concentration range of 1000 to 0.01 nM and injected for 5 min, followed by dissociation in running buffer for 15-25 min. After dissociation, the surfaces were regenerated with one or two injections of 0.1% SDS. Kinetic constants were calculated from the sensorgrams using the Langmuir 1:1 model of BiaEvaluation software 4.1 (GE Healthcare).
# T1 sequence (Q9NZQ7 19-239 limits assumed): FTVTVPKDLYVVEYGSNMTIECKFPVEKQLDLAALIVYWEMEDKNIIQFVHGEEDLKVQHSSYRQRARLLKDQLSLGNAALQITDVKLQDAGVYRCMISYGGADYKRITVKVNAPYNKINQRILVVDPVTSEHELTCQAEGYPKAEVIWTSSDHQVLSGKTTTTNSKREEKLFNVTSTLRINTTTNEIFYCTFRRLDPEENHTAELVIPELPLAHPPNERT
Substance,IC50 (hPD-L1 binding to hPD-1) [M],Kd (hPD-L1 [1]) [nM],ka (hPD-L1 [1]) [M⁻¹ s⁻¹],kd (hPD-L1 [1]) [s⁻¹],EC50 (hPD-L1 [3]) [nM],SPR response against B7-H4 (hB7-H4; 1000 nM Z variant injected),"Kd (hB7-H4; Biacore, immobilized hB7-H4, response seen at 1000 nM Z variant) [nM]",MFI (normalized) [2]
Z13112: primary PD-L1 binding Z variant (VDAKYAKERNAAAFEILTLPNLTNEQHWAFIWKLDDDPSQSSELLSEAKKLNDSQAPK; Engineered PD-L1 binding polypeptide),3.9e-09,2.5,610000,0.0015,0.22,–,–,0.76
Z13304: primary PD-L1 binding Z variant (VDAKYAKERNNAASEILALPNLTQLQYWAFIWKLADDPSQSSELLSEAKKLNDSQAPK; Engineered PD-L1 binding polypeptide),4.2e-08,4.1,1.6e+06,0.0064,0.32,–,–,0.75
Z13080: primary PD-L1 binding Z variant (VDAKYAKERNSAAEEILHLPNLTMQQLWAFIWKLDDDPSQSSELLSEAKKLNDSQAPK; Engineered PD-L1 binding polypeptide),2.7e-09,6.6,1.4e+06,0.0092,–,–,–,1.06

# The next substances have a lower IC50 (hPD-L1 binding to hPD-1) than those just listed; values first:
IC50 (hPD-L1 binding to hPD-1) [M],Kd (hPD-L1 [1]) [nM],ka (hPD-L1 [1]) [M⁻¹ s⁻¹],kd (hPD-L1 [1]) [s⁻¹],EC50 (hPD-L1 [3]) [nM],SPR response against B7-H4 (hB7-H4; 1000 nM Z variant injected),"Kd (hB7-H4; Biacore, immobilized hB7-H4, response seen at 1000 nM Z variant) [nM]",Substance,MFI (normalized) [2]
2.3e-09,11,790000,0.0087,–,–,–,Z13164: primary PD-L1 binding Z variant (VDAKYAKERNNAAQEILQLPNLTQLQRWAFIWKLDDDPSQSSELLSEAKKLNDSQAPK; Engineered PD-L1 binding polypeptide),0.81
2.2e-09,1.5,2.4e+06,0.0035,–,–,–,Z13169: primary PD-L1 binding Z variant (VDAKYAKERNRAAQEILVLPNLTRKQQWAFIWKLDDDPSQSSELLSEAKKLNDSQAPK; Engineered PD-L1 binding polypeptide),0.91
1.3e-09,0.64,2e+06,0.0013,–,some response,> 5000,Z13165: primary PD-L1 binding Z variant (VDAKYAKERNYAAWEILRLPNLTASQYWAFIWKLDDDPSQSSELLSEAKKLNDSQAPK; Engineered PD-L1 binding polypeptide),1.24
8.8e-10,–,1.4e+06,0.0037,–,–,–,Z13088: primary PD-L1 binding Z variant (VDAKYAKERNNAATEILRLPNLTAGQTWAFIWKLDDDPSQSSELLSEAKKLNDSQAPK; Engineered PD-L1 binding polypeptide),1.00

# Source: US11155596B2, “Polypeptide” (AFFIBODY AB, priority 2016, dated 2021)
